# Test results: PubChem BioAssay AID686979 (National Center for Advancing Translational Sciences (NCATS), 2013)
# Values joined by “and” are separate entries in the source; they are usually repeats but may differ in a detail not shown here. Equal entries are not always repeated. The whole screen tested about 420,000 compounds, of which about 50,000 (12%) were called active. The inconclusive results got no clear call from the source; some entries with a clear call stand among them for comparison. The call rests on the fitted dose curve; in most records, active means well fitted inhibition curve with a large enough effect; inconclusive means small, poorly fitted or top-dose-only effect; inactive means flat fitted curve, though single readings scatter. No potency is given beside an inconclusive call; the fits are too rough.
# Test: qHTS for Inhibitors of human tyrosyl-DNA phosphodiesterase 1 (TDP1): qHTS in cells in presence of CPT; further: nearly all actives have a fitted effect of over 55% in size
# Conditions: chicken DT40 Tdp1-/-;hTDP1 cells + 20 nM CPT, ATP luminescence, 48 h; activity change, negative = growth inhibition: at 46.2 µM (top of the series) unless noted
# Procedure, shortened: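 Chicken DT40 Tdp1-/- cells stably complemented with human TDP1 were seeded at 400 cells/well in medium containing 20 nM camptothecin, exposed to pin-transferred compounds, and grown at 37 °C for at least 48 hr. Viability was read as ATP luminescence.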
# On the % scale 0 is the no-effect control and ±100 the full control effect; potency means the concentration at half of the fitted maximal effect; tags describe the fitted curve by direction and shape.
SMILES,Potency,"activity change, negative = growth inhibition"
FC(F)(F)c1ccccc1Cc1c(-c2cccc(Br)c2)nc2ccc(Br)cn12,"inconclusive [inhibitor, single point]",
COc1ccc(-c2csc(C(C)(O)c3ccncc3)n2)cc1OC (stereo not drawn),"inconclusive [inhibitor, partial curve, poor fit]",
Cc1ccc(C)c(Nc2cc(C(=O)NCc3cccnc3)c3ccccc3n2)c1,"inconclusive [inhibitor, single point]",
O=C(Nc1ccc2c(c1)OCO2)c1cc(C2CCCCN2C(=O)OCCF)on1 (stereo not drawn),"inconclusive [inhibitor, single point]",
CC(C)(CO)Nc1nc(Nc2ccccc2)nc(Nc2ccccc2)n1,"inconclusive [inhibitor, single point]",
COc1ccc2[nH]c3c(N4CCc5ccccc5C4)ncnc3c2c1,active: 1.16 µM,
COc1ccc(Br)cc1/C=N/NC(=O)C[n+]1ccccc1,active: 18.4 µM,
COc1cc(C(=O)Nc2ccc3c(c2)nc(C)n3C)cc(OC)c1OC,active: 4.11 µM,
COc1cc(/C=C/c2nc(C#N)c(N3CCCCC3)o2)cc(OC)c1OC,active: 8.2 µM,
COc1ccc(N=C(C)c2sc3ccccc3c2O)cc1,,inactive: 3.55%
CC(C)NC(=O)CN1CCN(C(=O)c2ccc3oc(CCCc4ccccc4)nc3c2)CC1,"inconclusive [inhibitor, single point]",
CN(C)c1ccc(/C(=N\O)C(F)(F)F)cc1,"inconclusive [inhibitor, single point]",
CN(C(=O)c1cc2n(n1)C(C(F)(F)F)CC(c1ccco1)N2)c1ccc(OC(F)(F)F)cc1 (stereo not drawn),"inconclusive [inhibitor, partial curve]",
NC(=O)[C@H]1CC2(CC(c3cccc(NC(=O)COc4ccc(Cl)cc4)c3)=NO2)CN1C(=O)C(c1ccccc1)c1ccccc1 (stereo partly drawn),active: 6.51 µM,
CC(C)C(=O)Nc1cccc(C(=O)Nc2ccc3c(c2)OCO3)c1,"inconclusive [inhibitor, single point]",
Cc1cc(Sc2ncnc(N)c2[N+](=O)[O-])ncn1,active: 0.291 µM,
O=C(CSc1cccc[n+]1[O-])Nc1cc2c(cc1Cl)C(=O)c1ccccc1C2=O,active: 20.6 µM,
O=S1(=O)CC(N2CCN(CCO)CC2)CN1Cc1cn(Cc2ccccc2C(F)(F)F)nn1 (stereo not drawn),,inactive: 9.41%
CCCCc1ccc(S(=O)(=O)N2CCC3(CC2)OCCO3)cc1,"inconclusive [inhibitor, single point]",
COc1ccc(N2CC(C(=O)N[C@@H](CC(C)C)C(=O)NC3CCCCC3)CC2=O)cc1 (stereo partly drawn),,inactive: 18.5%
COc1ccc(COC(=O)C2CCN(C(=O)c3ccc(Cl)cc3)CC2)cc1F,"inconclusive [inhibitor, single point]",
C=CS(=O)(=O)N(Cc1ccccc1Br)[C@H](CO)CC(C)C,active: 12.6 µM and active: 23.1 µM,
CCCN(C(=O)COc1ccc(C(C)=O)cc1OC)C1CCS(=O)(=O)C1 (stereo not drawn),,inactive: -4.96%
CC1CCCN(C2=C(NS(=O)(=O)c3ccc(Cl)cc3)C(=O)c3ccccc3C2=O)C1 (stereo not drawn),"inconclusive [inhibitor, single point]",

SMILES,Potency,"activity change, negative = growth inhibition"
COc1ccc2c(=O)c3ccccc3oc2c1,"inconclusive [inhibitor, single point]",
Cc1cc([N+](=O)[O-])ccc1NC(=O)C(C)NC1CCCCC1 (stereo not drawn),,inactive: -3.65%
CC(=O)Nc1ccc(S(=O)(=O)NCCC(=O)N2CCN(C(c3ccccc3)c3ccccc3)CC2)cc1,"inconclusive [inhibitor, single point]",
C=C(C)C1CC=C(C)/C(=N\NC(=O)CNc2ccccc2OC)C1 (stereo not drawn),"inconclusive [inhibitor, single point]",
Cc1ccc(F)cc1C(=O)N1CCCCC1c1cc(C(=O)NCc2ccccc2)no1 (stereo not drawn),active: 13 µM,
O=C(CN1C(=O)S/C(=C\c2ccc(O)cc2)C1=O)c1ccccc1,"inconclusive [inhibitor, single point]",
COc1c(C(=O)Nc2ccc(Br)cn2)ccc2ccccc12,,inactive: -14.6%
O=C(CN1CC(=O)Oc2ccccc21)OCC(=O)c1cccc(Br)c1,,inactive: -25.7%
Cc1ccc(C(=O)Nc2c(-c3ccccc3)nc3ccccn23)cc1,,inactive: -29.8%
O=C(CCC1CCCN(C(=O)COc2ccccc2)C1)N1CCN(c2ccccn2)CC1 (stereo not drawn),"inconclusive [inhibitor, single point]",
CCOC(=O)Nc1ccc2c(c1)N(C(=O)OCCN(C)C)c1ccccc1CC2,active: 18.4 µM,
CCOC(=O)c1ccc(NC(=S)N2CCCC(C)C2)cc1 (stereo not drawn),,inactive: -1.27%
Cc1c(C(=O)NC2CCCc3ccccc32)oc2ccc(S(=O)(=O)N3CCOCC3)cc12 (stereo not drawn),"inconclusive [inhibitor, partial curve]",
Cc1ccc(/C=C2\SC(=S)N(CCCC(=O)NC3CCCC3)C2=O)cc1,,inactive: -22.3%
Cc1cccc(-c2noc(CN(C3CCCCC3)S(=O)(=O)c3ccc(F)cc3)n2)c1,active: 20.6 µM,
Cn1c(N2CCN(c3ccccn3)CC2)nc2c1c(=O)n(Cc1ccc(Cl)cc1)c(=O)n2C,active: 16.4 µM,
CSc1nnc2c(n1)OC=Nc1ccc(Br)cc1-2,,inactive: -19.9%
Cc1ccc(CN2C(=O)c3ccccc3NC23CCN(Cc2ccccc2)CC3)cc1,"inconclusive [inhibitor, partial curve, poor fit]",
COC(C[C@H]1O[C@H]1C(=O)[C@@H](C)OCc1ccccc1)OC,active: 10.3 µM,
CCOc1cc(/C=N/NC(=O)CNc2ccc(C)cc2)ccc1OC(=O)c1ccccc1,active: 29.1 µM,
CC(C)c1nc2sc3c(=S)nc[nH]c3c2c2c1CCC2,"inconclusive [inhibitor, single point]",
COCC(=O)N1CCC2(CC1)CCN(C(=O)Nc1ccc(OC)cc1)CC2,,inactive: 2.58%
CN1N=C2c3ccccc3CCCC2C1c1ccc(F)cc1 (stereo not drawn),,inactive: -23%
O=C(C1CCC1)N1CCc2cc(S(=O)(=O)N3CCCCC3)ccc21,"inconclusive [inhibitor, partial curve]",
